Reference: PMC4336329 (PLoS ONE, 2015)
Out of some 310,000 compounds screened, about 2,200 (0.71%) showed an effect of 50% or more. Effects have a minus sign here. The list shows a part of the results.

What follows are molecules tested against human ether-à-go-go-related gene (hERG) potassium channel (human, UniProt Q12809) (assay: primary screen, population patch clamp on CHO cells stably expressing hERG).
human ether-à-go-go-related gene (hERG) potassium channel, sequence (Q12809 whole entry, looked up): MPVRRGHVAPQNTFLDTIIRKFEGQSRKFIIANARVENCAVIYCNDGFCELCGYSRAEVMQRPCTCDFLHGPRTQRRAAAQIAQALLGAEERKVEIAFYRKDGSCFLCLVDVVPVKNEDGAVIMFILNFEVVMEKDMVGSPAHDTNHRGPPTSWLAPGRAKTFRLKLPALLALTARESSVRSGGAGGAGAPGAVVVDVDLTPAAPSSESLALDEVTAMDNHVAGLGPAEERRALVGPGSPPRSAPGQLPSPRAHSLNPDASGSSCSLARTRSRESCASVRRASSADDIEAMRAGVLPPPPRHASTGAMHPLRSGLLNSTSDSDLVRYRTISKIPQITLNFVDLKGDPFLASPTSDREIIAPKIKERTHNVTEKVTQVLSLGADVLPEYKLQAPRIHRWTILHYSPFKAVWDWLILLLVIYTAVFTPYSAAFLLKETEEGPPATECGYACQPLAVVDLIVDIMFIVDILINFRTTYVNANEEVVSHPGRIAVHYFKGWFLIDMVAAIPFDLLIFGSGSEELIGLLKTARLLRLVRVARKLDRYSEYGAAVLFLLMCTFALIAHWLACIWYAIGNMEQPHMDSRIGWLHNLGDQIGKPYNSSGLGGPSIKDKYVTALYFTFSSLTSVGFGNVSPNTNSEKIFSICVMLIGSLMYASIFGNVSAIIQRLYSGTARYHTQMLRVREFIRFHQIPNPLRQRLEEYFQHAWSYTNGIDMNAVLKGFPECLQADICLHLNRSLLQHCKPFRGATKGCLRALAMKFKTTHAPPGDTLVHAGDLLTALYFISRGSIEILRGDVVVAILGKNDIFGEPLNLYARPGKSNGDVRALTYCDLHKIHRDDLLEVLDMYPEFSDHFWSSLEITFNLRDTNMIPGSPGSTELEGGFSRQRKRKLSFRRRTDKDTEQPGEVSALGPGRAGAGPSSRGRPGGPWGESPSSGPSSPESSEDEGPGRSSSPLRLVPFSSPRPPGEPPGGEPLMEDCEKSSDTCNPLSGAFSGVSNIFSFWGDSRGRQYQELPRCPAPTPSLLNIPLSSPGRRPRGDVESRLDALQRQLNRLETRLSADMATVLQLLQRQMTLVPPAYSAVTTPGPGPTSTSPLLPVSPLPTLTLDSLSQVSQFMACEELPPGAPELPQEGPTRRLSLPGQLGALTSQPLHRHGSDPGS

Structure (SMILES) | hERG current change (%, negative = inhibition) at 1uM
Cl.Oc1ccc(Nc2ncnc3scc(-c4ccccc4)c23)cc1 | 3.98%
COc1ccc2[nH]c(=O)c(-c3nnn(-c4ccc(Cl)nc4)n3)cc2c1 | 16.5%
Cc1cccc(NC(=O)CCS(=O)(=O)c2ccc3c(c2)NC(=O)CS3)n1 | 13.5%
O=c1c2c(nc3cc(-c4ccccc4Cl)[nH]n13)CCS2 | 12.5%
CC1=CC(C)(C)NC(=S)N1c1ccc(C)cc1 | 8.38%
CN(C)S(=O)(=O)c1cc(NC(=O)Cn2ccsc2=N)ccc1Cl.Cl | -5.25%
CCOC(=O)CNC(=S)N(CCCN1CCCCC1)Cc1cccs1 | -31.3%
CNC(=O)C(=O)NCC1OCCCN1S(=O)(=O)c1ccc(F)cc1C (stereo not shown) | 12.2%
COc1ccc2nc(SCC(=O)NN)cc(C)c2c1 | 5.82%
CCOCCCNC(=O)CCN1C(=O)c2ccccc2Sc2ncccc21 | 12.9%
CC(=O)Nc1cccc(OCC(=O)Nc2ccc(F)cc2)c1 | 1.52%
CCOc1cc2c3c(c1)C1(C(=O)N3C(C)(C)CC2C)C(C#N)=C(N)N2C(=C1C#N)Nc1ccccc12 (stereo not shown) | 16.3%
Cc1cc(C)c(S(=O)(=O)N2CCN(C(=O)CN3C(=O)NC4(CCCC4)C3=O)CC2)c(C)c1 | -1.96%
CCN(CC)c1ccc(C(=O)NNC(=O)CN2C(=O)NC3(CCCCC3)C2=O)cc1 | 2%
CC(C)CC(NC(N)=O)C(=O)NCCc1ccc(Cl)cc1 (stereo not shown) | 20.7%
O=[N+]([O-])c1cccc(-n2cc3ccc([N+](=O)[O-])cc3n2)c1 | 10.2%
CC(=O)COc1ccc2c(-c3ccccc3)cc(=O)oc2c1 | 9.38%
O=C(NCCC1CCCC1)c1cccs1 | -0.073%
COc1ccc(NC(=O)CN(C)C(=O)c2ccccc2OC)cc1 | 8.96%
O=C(COc1ccc(S(=O)(=O)NC2CCCCC2)cc1)NC1CCCC1 | 9.05%
COc1ccc(C(=O)OCC(=O)c2ccc(C)c(S(=O)(=O)N3CCOCC3)c2)cc1OC | 2.21%
N#Cc1ccc(-c2nc3cc(Cl)ccc3c(=O)n2O)cc1 | 8.33%

Structure (SMILES) | hERG current change (%, negative = inhibition) at 1uM
CCOC(=O)c1c(-c2ccc(OC)cc2)oc2ccc(OCC(N)=O)cc12 | 15.2%
COc1ccc(C2CC3(CC(C)(C)NC(=S)N3)Oc3cc(O)cc(C)c32)cc1OC (stereo not shown) | 15.9%
CN1CCN(CCCNC(=O)Nc2cccc3ccccc23)CC1 | 5.94%
CC(C)=C(C#N)c1nc2ccccc2s1 | 3.47%
COc1ccc(NC(=O)Cn2c(NCC(C)O)nc3ccccc32)cc1Cl (stereo not shown) | 14.2%
CCN(CC)S(=O)(=O)c1cccc(NC(=O)CNc2cccc(S(=O)(=O)N3CCCC3)c2)c1 | 11.4%
CCOC(=O)C/C(N)=N/N(C)c1ncc(C(F)(F)F)cc1Cl | 15.6%
O=C1CCc2cc(S(=O)(=O)NC(Cc3ccccc3)C(=O)NCCC3=CCCCC3)ccc2N1 (stereo not shown) | 11%
COc1ccc(C(=O)O/N=C(\N)c2ccncc2)cc1OC | 10.4%
Cc1cccc2sc(NC(=O)c3ccc(Cl)s3)nc12 | 6.44%
CC(C)N1CCC(N2CCN(Cc3cccnc3)CC2CCO)CC1 (stereo not shown) | 4.23%
Cc1cc(C)cc(NC2=CC(=O)CC(c3ccco3)C2)c1 (stereo not shown) | 14.5%
CN(C)CCCNc1oc(/C=C/c2ccccc2)nc1C#N | -8.47%
CCOC(=O)C1CCN(C(=O)c2ccc(Cl)c(NC3=NC4CS(=O)(=O)CC4S3)c2)CC1 (stereo not shown) | 12.8%
CC(C)C[C@H](NC(=O)OC(C)(C)C)C(=O)N1CCC(C(=O)O)CC1 | 11.7%
O=C(Nc1ccc2c(c1)OCCO2)C1CCN(C(=O)c2ccc(Cl)cc2)CC1 | 3.04%
CNC(=O)CSc1nc2cc(S(=O)(=O)Nc3ccc(OC)cc3)ccc2o1 | 10%
O=C(C1CC1)N1CCc2cc(Br)cc(S(=O)(=O)NCCN3CCOCC3)c21 | 2.16%
O=C(CCc1nc2ccccc2c(=O)[nH]1)Nc1ccc(N2CCCCC2)cc1 | 3.38%
CNc1nc(-c2ccc([N+](=O)[O-])cc2)cs1 | 5.3%
C[C@H](NC(=O)c1ccc2ccccc2c1)C(=O)N1CCC2(CC1)NCCc1[nH]cnc12 | 12.7%
CCc1ccccc1NC(=O)CN1CCC(NC(=O)COC)CC1.Cl | 17.6%

Structure (SMILES) | hERG current change (%, negative = inhibition) at 1uM
COc1ccccc1C(=O)Nc1ccc2c(c1)nc(CCNC(C)=O)n2C | 14.6%
CCc1c(-c2ccccc2)nc(N)c(C#N)c1-c1cccs1 | 6.32%
COc1cc(/C=C/C(=O)OCC(=O)Nc2sc3c(c2C#N)CCC(C)C3)ccc1OCC#N (stereo not shown) | 8.42%
COc1ccc(/C=N/NC(=O)c2ccn[nH]2)cc1COc1ccc([N+](=O)[O-])c(C)c1 | 14.4%
Cc1cc(=O)[nH]c(SCC(=O)Nc2ccccc2C#N)c1C#N | 11.9%
CCN(CC)CCN(Cc1cc2cc3c(cc2[nH]c1=O)OCCO3)C(=O)NC1CCCCC1 | -2.85%
COc1ccccc1-c1cc(C(=O)NCCCn2ccnc2)no1 | -2.43%
O=c1[nH]c(SCc2cccc(Cl)c2)nc2c1CCCC2 | 1.9%
COc1ccc(S(=O)(=O)Nc2ccc(-c3ccc(N4CCCC4)nn3)cc2)cc1C | 11.6%
C=CCOC(=O)C1=C[C@@H](c2cn(C(C)=O)c3ccccc23)C[C@@H](OCc2ccc(CO)cc2)O1 | -14.1%
CCOc1ccccc1N1CCN(C(=S)NCc2ccc(Cl)cc2)CC1 | 8.75%
Cc1ccc(C)c(C(=O)Nc2ccncc2)c1 | 12.4%
COCCNC(=O)Nc1ccc2c(c1)N(C)C(=O)c1ccccc1S2 | 7.57%
CCS(=O)(=O)C1=NN2C(=N)/C(=C\c3ccc(OS(=O)(=O)c4ccccc4)c(OC)c3)C(=O)N=C2S1 | 16.5%
COc1ccc(C(CC(=O)O)NS(=O)(=O)c2ccc3c(c2)NC(=O)CO3)cc1 (stereo not shown) | 12.1%
CC1(N2CCCCC2)CC2(O)C(=[N+]1[O-])CCC/C2=N\O (stereo not shown) | 6.49%
Oc1ccc(C=Nc2cccc3ncccc23)c(O)c1 | 6.61%
COc1ccc(S(=O)(=O)Nc2nc3ccccc3nc2Nc2ccc3c(c2)OCO3)cc1 | 9.69%
CCC1CCCCN1S(=O)(=O)Cc1ccccc1Cl (stereo not shown) | 9.58%
COc1ccc(-c2cc(C(=O)N3CCCCCC3)c3cc(C)ccc3n2)cc1 | 23.4%
COc1ccccc1N1CCNCC1.Cl | 17.2%
Cc1ccc(NC(=O)C2CCN(C(=O)c3ccco3)CC2)cc1 | 12.8%

Structure (SMILES) | hERG current change (%, negative = inhibition) at 1uM
O=C(CN1CCc2cc3c(cc2C1)OCCCO3)Nc1c(F)cccc1F | 8.46%
CCCCCOc1ccc(C2NC(=O)NC2=O)cc1 (stereo not shown) | 3.89%
COc1ccc(C2=NCc3nnc(C)n3-c3ccc(Cl)cc32)cc1Cl | 4.72%
CCCN(CCC)CCCNC(=O)C1c2cc(OC)c(OC)cc2C(=O)N(C)C1c1cccnc1 (stereo not shown) | 14.2%
CN1C(=O)c2ccccc2Sc2ccc(C(=O)N3CCC4(CC3)OCCO4)cc21 | 1.09%
COc1ccc(C(=O)NCCS(=O)(=O)N2CCN(Cc3ccccc3)CC2)cc1 | 11.9%
Cc1ccc(Nc2nc(N3CCOCC3)nc(N3CCOCC3)n2)cc1C.Cl | 7.46%
CN(CCNC(=O)Cn1c(=O)sc2ccccc21)Cc1ccccc1 | -2.68%
COc1ccccc1-c1nc(C#N)c(N2CCC(Cc3ccccc3)CC2)o1 | -1.64%
CC(C)(C)C(=O)CN1CCN(S(=O)(=O)c2ccc(F)cc2)CC1 | 14.2%
Cc1cc(C)c(S(=O)(=O)N2CCC(C(=O)NCc3ccco3)CC2)c(C)c1 | -1.13%
CCCCC1(C)OC(=O)C(=Cc2ccc(N(CC)CC)cc2)C(=O)O1 (stereo not shown) | 8.29%
CCOc1ccc(CCNC(=O)C2(c3ccccc3)CC2)cc1OCC | 14.6%
Cc1cccc(NC(=O)CN2CCN(C(=O)c3cncn3-c3ccc(F)cc3)CC2)c1C | -22.2%
O=C(NC1CCCCC1)c1ccccc1NC(=O)C1CC(=O)N(c2ccccc2)C1 (stereo not shown) | -64.3%
CCOC(=O)C1(Cc2ccc(OC)cc2)CCN(C(=O)CCN2CCCC2=O)CC1 | 13.1%
O=C(NCCc1ccccc1)c1ccc(=O)oc1 | 8.3%
Cc1cccc(N2CCN(C(=O)c3cccc(N4CCCC4=O)c3)C(C)C2)c1 (stereo not shown) | 12.3%
Cc1cc(=O)n2nc(N3CCCC(C(=O)NCCC4=CCCCC4)C3)sc2n1 (stereo not shown) | -4.44%
CCOC(=O)c1sc(NC(=O)CSC(=S)N2CCN(C)CC2)nc1C | 0.0501%
COc1ccc(-c2ccc(-c3noc(-c4ccccc4C)n3)c(OC)n2)cc1 | 13.7%
Cc1ccc(C)c(C(=O)NC2CC(C)(C)NC(C)(C)C2)c1 | 10.3%
